The results in this text go back to patent US20240182561A1 (Regeneron, published 2024).

Assay [1] addresses T1, human CACNG1 expressed on cells (human, UniProt Q06432 1-222). In words: cell-based or functional assay.
Assay [2] addresses T2, mouse CACNG1 expressed on cells (mouse, UniProt O70578 1-223).
T2 sequence (looked up): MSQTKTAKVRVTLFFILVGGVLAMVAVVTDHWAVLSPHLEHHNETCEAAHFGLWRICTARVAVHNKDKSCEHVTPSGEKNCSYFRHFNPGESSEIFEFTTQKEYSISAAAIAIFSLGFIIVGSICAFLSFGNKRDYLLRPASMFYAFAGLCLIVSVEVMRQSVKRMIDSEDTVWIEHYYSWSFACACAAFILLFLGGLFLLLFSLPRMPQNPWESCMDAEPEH
In words: cell-based or functional assay.

The target in assay [3] is T1, human CACNG1 expressed on cells. In words: imaging cell binding, HEK293/hCACNG1. As to the method: (§1) HuSKM were seeded in collagen-coated 96-well plates (Greiner Bio-One #655956) at 8,500 cells/well and grown for 24 hours. The growth media was changed to MyoTonic Differentiation Media (Cook Myosite Cat #MD-5555) and replaced every 2 days. Myotubes were assayed after 6 days of differentiation. C2C12 mouse myoblasts were maintained in DMEM with 10% FBS and 1% penicillin-streptomycin supplement and grown in a 37° C. incubator with 5% CO₂. C2C12 cells were seeded in collagen-coated 96-well plates (Greiner Bio-One #655956) at 10,000 cells/well for the cell binding assay and 5,000 cells/well for the cell killing assay. After 24 hours, growth media was replaced with differentiation media (DMEM with 2% horse serum) and placed in a 37° C. incubator with 7.5% CO₂. C2C12 myotubes were assayed after 3 days of differentiation. HEK293/hCACNG1, HEK293/mCACNG1, and HEK293 cells were seeded at 10,000 cells (cell binding assay) or 2,000 (cell killing assay) per well in 96-well black collagen coated plates (Greiner Bio-One, cat #655956) in complete growth media and grown overnight at 37° C. in 5% CO₂.
(§2) Relative binding of anti-CACNG1 antibodies was assessed across the entire panel of cell lines via imaging analysis. […] Images were acquired with a 10× objective on the Opera Phenix (Perkin Elmer) and relative fluorescence units (RFU) was determined using Harmony software (Perkin Elmer).

The target of assay [4] is T2, mouse CACNG1 expressed on cells. The assay is described as follows: imaging cell binding, HEK293/mCACNG1. As to the method: as §1, §2
Assay [5] addresses T1, human CACNG1 expressed on cells. The assay is described as follows: imaging cell binding, HuSKM myotubes. As to the method:
as §1, §2

The target in assay [6] is T3, nanodisc embedded human CACNG1 expressed with a C-terminal PADRE-Flag-His tag (human, UniProt Q06432 1-222).
T3 construct: Captured on an anti-His Biacore surface; also called human CACNG1 nanodisc; CACNG1 nanodisc; not shown: C-terminal tag
In words: SPR, anti-His-captured nanodisc, 25 C. As to the method: Equilibrium dissociation constants (KD values) for nanodisc embedded human CACNG1 expressed with a C-terminal […] tag (human CACNG1 nanodisc; concentration 0.82 mg/ml) binding to purified anti-CACNG1 antibodies were determined using a real-time surface plasmon resonance biosensor technology with a Biacore T200 instrument. The CM5 Biacore sensor surface was derivatized by amine coupling with a monoclonal mouse anti-His antibody (Cytiva; Marlborough, MA). All Biacore binding studies were performed in a buffer composed of 0.01M HEPES, 0.15M NaCl, 1 mM CaCl₂, 0.5 mM MgCl₂, pH 7.4 (HBS-N++ running buffer). Different concentrations of anti-CACNG1 antibodies (ranging from 300 nM to 12 nM in 5-fold serial dilutions) prepared in HBS-N++ running buffer were injected over the captured human CACNG1 nanodisc at a flow rate of 30 μL/minute. Antibody association was monitored for 2 minutes while dissociation was monitored in HBS-N++ running buffer for 5 minutes. At the end of each cycle, the human CACNG1 nanodisc capture surface was regenerated using three 10 second injections of 10 mM Gly pH1.5. All binding kinetics experiments were performed at 25° C.
The specific SPR-Biacore sensorgrams were obtained by a double referencing procedure. The double referencing was performed by first subtracting the signal of each injection over a reference surface (anti-His) from the signal over the experimental surface (anti-His captured human CACNG1 nanodisc) thereby removing contributions from refractive index changes. In addition, running buffer injections were performed to allow subtraction of the signal changes resulting from the dissociation of captured antibodies from the coupled anti-His surface. Kinetic association (kₐ) and dissociation ([…]) rate constants were determined by fitting the real-time sensorgrams to a 1:1 binding model using Scrubber v2.0c curve fitting software. Binding dissociation equilibrium constants (KD) and dissociative half-lives (t %) were calculated from the kinetic rate constants as: […]
(Surface plasmon resonance follows binding to a sensor surface in real time, without labels.)

Assay [7] addresses T2, mouse CACNG1 expressed on cells. In words: imaging cell binding, C2C12 mouse myotubes. As to the method: as §1, §2
In assay [8] the target is T1, human CACNG1 expressed on cells. The assay is described as follows: cell-based or functional assay. This is another data set of the same source.
The target is the same in assay [9]. In words: cell-based or functional assay. This is another data set of the same source.

T1 sequence (Q06432 whole entry): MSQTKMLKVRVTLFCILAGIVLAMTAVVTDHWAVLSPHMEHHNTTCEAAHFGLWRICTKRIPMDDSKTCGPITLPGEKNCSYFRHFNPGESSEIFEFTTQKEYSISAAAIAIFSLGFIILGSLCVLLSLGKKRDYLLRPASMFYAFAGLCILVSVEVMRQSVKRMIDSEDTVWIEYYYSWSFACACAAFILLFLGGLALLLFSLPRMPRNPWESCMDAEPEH

B1: REGN10783 (antibody, human IgG4 S228P, kappa)
heavy: QVQLVESGGGVVQPGTSLRLSCAASGFTFSSYGMHWVRQAPGKGLEWVAVIWIDGSNKYYADSVKGRFTISRDNSKNTLYLQMNSLRAEDTAVYYCARRGGIVVAAPFDYWGQGTLVTVSSASTKGPSVFPLAPCSRSTSESTAALGCLVKDYFPEPVTVSWNSGALTSGVHTFPAVLQSSGLYSLSSVVTVPSSSLGTKTYTCNVDHKPSNTKVDKRV[human IgG4 Fc with S228P (EU numbers) omitted here]
light: [about 100 residues omitted here][about 120 residues omitted here]
notes: hIgG4
The term EC50 denotes the concentration at which the effect is half-maximal. Low readings indicate a more potent agent, high ones a less potent agent. Broadly, the Kd is a measure of binding affinity in units of concentration. Usually koff stands for a measure of how fast the partners let go of each other. The low end stands for a long-lived complex, the high end for a short-lived complex. One may read the kon as the rate constant with which the complex forms. High values mean fast association, low ones slow association. As to B1, in assay [1], the “% KILL, indirect cell killing, HEK293/hCACNG1” value was determined as 95.4%; the “% KILL, indirect cell killing, HuSKM” value was 99.3%; the “EC50/IC50, indirect cell killing, HEK293/hCACNG1” value stood at 0.00178 nM; the “EC50/IC50, indirect cell killing, HuSKM” value turned out to be 0.216 nM. Besides, in [2], the “% KILL, indirect cell killing, C2C12” value worked out at 0%; the “% KILL, indirect cell killing, HEK293/mCACNG1” value worked out at 23.7%; the “EC50/IC50, indirect cell killing, C2C12” value is greater than 10 nM; the “EC50/IC50, indirect cell killing, HEK293/mCACNG1” value is greater than 1 nM. In assay [3], this molecule had an EC50 of 8.5 nM and a S/N of 230 fold. Besides, the S/N in [4] stood at 1.7 fold. In assay [5], this molecule had an EC50 of 2.9 nM and a S/N of 734 fold. Moreover, in [6], the Kd amounted to 93.5 nM, the koff came to 0.0127 s⁻¹, the kon was 136000 M⁻¹ s⁻¹ and the “mAb bound at 300 nM” value came out at 9 RU. The same molecule showed a t1/2 in [6] of 54 s. Besides, in assay [7], the S/N worked out at 1.1 fold and the binding result was “no binding (tested: 100 nM highest tested)”.

B2: REGN14647-M3004 (antibody, human IgG1, kappa)
heavy chain: QVQLVESGGGVVQPGRSLRLSCTASGITFRNYGMHWVRQAPGKGLEWVAVMWYDGSNKYYADSVKGRFTISGDNSKVYLQMNSLRAEDTAVYYCARRGTIRTAAPFDYWGQGTLVTVSS[human IgG1 constant region with changes omitted here]
light chain: [about 100 residues omitted here][about 120 residues omitted here]
modifications: DHT linker-payload M3004 conjugated, DAR about 4
For B2, the “EC50 of androgen receptor luciferase reporter activation (RLU) by the DHT conjugate REGN14647-M3004 in hCACNG1.AR.Luc LNCaP cells, 24 hours; concentration adjusted for DAR” value in assay [8] came out at 6.75 nM. In addition, the “EC50 of androgen receptor luciferase reporter activation (RLU) by the DHT conjugate REGN14647-M3004 in hCACNG1.AR.Luc LNCaP cells, 72 hours; concentration adjusted for DAR” value in assay [9] amounted to 7.36 nM.
